In publication PMC7819943, “Rice protein-binding microarrays: a tool to detect cis-acting elements near promoter regions in rice”:
This is one part of the list.

Target: T1, OsWOX13 (Oryza sativa, UniProt Q5QMM3 1-267)
T1 sequence: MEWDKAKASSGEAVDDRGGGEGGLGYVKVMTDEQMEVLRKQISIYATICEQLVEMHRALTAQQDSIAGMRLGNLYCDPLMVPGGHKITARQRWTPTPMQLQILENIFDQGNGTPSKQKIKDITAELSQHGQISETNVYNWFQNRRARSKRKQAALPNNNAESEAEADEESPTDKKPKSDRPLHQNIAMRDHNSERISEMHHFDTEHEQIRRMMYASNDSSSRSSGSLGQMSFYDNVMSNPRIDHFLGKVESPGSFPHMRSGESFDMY
Assay: protein-binding microarray (RPBM); PBS, 2% BSA, 51.3 ng/ul salmon testes DNA, 50 uM zinc acetate, 200 nM TF, 25 C, 1 h; high values mean tight binding
Conditions: protein: recombinant; tags: N-terminal polyhistidine and DsRed monomer fusion (pET32a); label: CyDye5-dUTP incorporated in the synthesized complementary strand; 3' TTTTT single-stranded linker to array surface; dsDNA, one strand shown
Summary of the method: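 Transcription factors were each fused at the N-terminus to a polyhistidine tag plus DsRed and expressed in E. coli BL21-CodonPlus before Ni–NTA purification. Binding to a double-stranded custom Agilent array was carried out with 200 nM protein at 25 °C for 1 h in PBS, 2% BSA, salmon testes DNA and 50 µM zinc acetate. The binding signal is per-feature fluorescence intensity, in arbitrary units, on an Axon 4000B scanner.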

Going from “GTGATAAATTATTTCACAAATATGCAAGGTCAAATTTAACCGGAGTCACCTAGTGCAG” to “GCCCCTTCGTCAATTTGTAATGTATTTTGTACAGTAGGACCGGAGTCACCTAGTGCAG”, the binding signal falls from 11900 fluorescence intensity (a.u.) to 5220 fluorescence intensity (a.u.).

First: AGAACTAGTGATTAGCGGCTGCATGCAAGCATTTAGTTGGCGGAGTCACCTAGTGCAG
Second: ATTTATACCTAAATTAACAAATCATCAATATACATCATTGCGGAGTCACCTAGTGCAG
The binding signal of the first is lower: 6820 fluorescence intensity (a.u.) for the first, 10200 fluorescence intensity (a.u.) for the second.

Compared with “AATAATTTGACAATTGAGCAGAAATGCCGACCATGGGAAGCGGAGTCACCTAGTGCAG”, “TTCCCGATAATTGAACTGTAGCATTATAAAAGGGCATCAGCGGAGTCACCTAGTGCAG” is higher in binding signal: 29900 fluorescence intensity (a.u.) for the first, 31500 fluorescence intensity (a.u.) for the second.

Going from “TTGATTTGACGCGCGCGATTTCTTCGTGCCATTTGCGACGCGGAGTCACCTAGTGCAG” to “TTTAGATTTATAGTATTAAAATATGTTATCTTTTATCAGGCGGAGTCACCTAGTGCAG”, the binding signal falls from 14000 fluorescence intensity (a.u.) to 9030 fluorescence intensity (a.u.).

Compared with “TATAATTGATCTTTGTAGTTATTTTGTTGCATACATAAGACGGAGTCACCTAGTGCAG”, “CTTAATTATGCTCAAAAGATTCGTCTTATGGTTTCCAAGCCGGAGTCACCTAGTGCAG” is higher in binding signal: 29100 fluorescence intensity (a.u.) for the first, 32500 fluorescence intensity (a.u.) for the second.

First: ATTTTGATTAAATGGTGATCAGCCAAAGCATTTGCCATCCCGGAGTCACCTAGTGCAG
Second: TTTGATGAAAAGTGATGCGTAGCACTATTTATTTTCGGAGCGGAGTCACCTAGTGCAG
The binding signal of the first is higher: 39300 fluorescence intensity (a.u.) for the first, 3920 fluorescence intensity (a.u.) for the second.

First: TATTAAACTTTAATTAAATTAGAGTGACTTCTTCAATAAACGGAGTCACCTAGTGCAG
Second: AATAAATTGTGACAGCTGTGGGATTTGAACCCACGCCCTTCGGAGTCACCTAGTGCAG
The binding signal of the first is lower: 8700 fluorescence intensity (a.u.) for the first, 25700 fluorescence intensity (a.u.) for the second.

Compared with “AAGAGATTGGAATCGGGCGTACCGGAGAACTTTGGAGATGCGGAGTCACCTAGTGCAG”, “TTGAAATCAATTTTGATTATTAGCTGAGACTTATTTGACTCGGAGTCACCTAGTGCAG” is higher in binding signal: 12100 fluorescence intensity (a.u.) for the first, 27200 fluorescence intensity (a.u.) for the second.

Compared with “GTTAATGTACTAAATTACATTCACATAACAAGGTTATGTACGGAGTCACCTAGTGCAG”, “GCAAATAGACATCTTTAGTGGTTAGCGAAGCGGTTTGTACCGGAGTCACCTAGTGCAG” is lower in binding signal: 24300 fluorescence intensity (a.u.) for the first, 8850 fluorescence intensity (a.u.) for the second.

Going from “TGCAAGATTGAAGACTAGTTCAATAATGAGGCTAGTCCTTCGGAGTCACCTAGTGCAG” to “CACGGATTATTTTGAGCAATTACCGCTCTAATCCGGGGCGCGGAGTCACCTAGTGCAG”, the binding signal falls from 33900 fluorescence intensity (a.u.) to 3600 fluorescence intensity (a.u.).

Going from “GCTGATTAGCCCTAGGCAACGCTCGCTAACACGCCACCACCGGAGTCACCTAGTGCAG” to “AAAGATTGGAACTGATTAATGACATGTTTGAATGGTTAGGCGGAGTCACCTAGTGCAG”, the binding signal rises from 30900 fluorescence intensity (a.u.) to 51500 fluorescence intensity (a.u.).

First: GATAAACACTAATTGCAGCAACTGGTAGGCATCAGAACACCGGAGTCACCTAGTGCAG
Second: TATAAATTGACTGATAAGCAACGGCCATTTCAGCTCAGATCGGAGTCACCTAGTGCAG
The binding signal of the first is lower: 13100 fluorescence intensity (a.u.) for the first, 45600 fluorescence intensity (a.u.) for the second.

First: TGATATATCGAATAGATTGATATCAGTATTGTTGAAGCTACGGAGTCACCTAGTGCAG
Second: GGCTAAACATGAAAACTGATTTATGGATAGTGGGTTTTGACGGAGTCACCTAGTGCAG
The binding signal of the first is lower: 12500 fluorescence intensity (a.u.) for the first, 17500 fluorescence intensity (a.u.) for the second.

First: TAAATTAATTTATATTTTATAATAAACCGTTTTGGTTTAACGGAGTCACCTAGTGCAG
Second: AGTTATCTGATTTGCCCTTGTATTGGTTTGTATCACGTCGCGGAGTCACCTAGTGCAG
The binding signal of the first is higher: 40000 fluorescence intensity (a.u.) for the first, 8210 fluorescence intensity (a.u.) for the second.

Compared with “ACGTCTCTAGTGCCAATCATTTTATGTAGAGTGGAGCCACCGGAGTCACCTAGTGCAG”, “CTCTTAATTATCAAGTAATTACAACTAACAGTATAAGCTACGGAGTCACCTAGTGCAG” is higher in binding signal: 3750 fluorescence intensity (a.u.) for the first, 44400 fluorescence intensity (a.u.) for the second.

Compared with “ATGCTGTCATTTCTCATTTAGTTACTTTCAACTAATACTACGGAGTCACCTAGTGCAG”, “GTCCTACATATGCTAAATTGGCAATATGTAAAGATTTACTCGGAGTCACCTAGTGCAG” is higher in binding signal: 3670 fluorescence intensity (a.u.) for the first, 4980 fluorescence intensity (a.u.) for the second.

Compared with “AAAGAAAATGATTGGACATTTTCTTTCACGTGTATGCTTACGGAGTCACCTAGTGCAG”, “TGCAAACTGGAGGCCAAATTTACTACAAAACTACGTATTTCGGAGTCACCTAGTGCAG” is lower in binding signal: 47500 fluorescence intensity (a.u.) for the first, 3890 fluorescence intensity (a.u.) for the second.

Compared with “TAATAATTAGTATAATGAAAATAAATAAATTACCGGGAGTCGGAGTCACCTAGTGCAG”, “AGAAATTAATTTCTCTCGGTATTTTCTTCTTTCTTCTCTCCGGAGTCACCTAGTGCAG” is lower in binding signal: 49300 fluorescence intensity (a.u.) for the first, 34300 fluorescence intensity (a.u.) for the second.

First: ACGTGTGATTAATTGAGTTTTAATTATTACAAACTTAAAACGGAGTCACCTAGTGCAG
Second: TGTTGTGATATATTGAAAGACAATTATAAATCTAAATGTGCGGAGTCACCTAGTGCAG
The binding signal of the first is higher: 40900 fluorescence intensity (a.u.) for the first, 5410 fluorescence intensity (a.u.) for the second.

First: TCATGCAATGATCGGAAAATTAATTGTCAATCCTAAGGCGCGGAGTCACCTAGTGCAG
Second: CTGGCCATTCAATCTCGAGTCAATGAAGTTAGTGATCCATCGGAGTCACCTAGTGCAG
The binding signal of the first is higher: 10700 fluorescence intensity (a.u.) for the first, 5330 fluorescence intensity (a.u.) for the second.

Compared with “TTCATCAAACAGATTGCCAGCGATAGAACACATGAAGGGACGGAGTCACCTAGTGCAG”, “ATAATAATTGGCTGTAACTCTGATGAGCAAAGGCTGAGATCGGAGTCACCTAGTGCAG” is higher in binding signal: 5230 fluorescence intensity (a.u.) for the first, 35200 fluorescence intensity (a.u.) for the second.
